In PubChem BioAssay AID588342 (National Center for Advancing Translational Sciences (NCATS), 2011):
In all, about 360,000 compounds went through this assay and about 25,000 (6.9%) were called active. Inconclusive results, whose numbers are uncertain, are shown with a selection of clear calls. The call rests on the fitted dose curve; in most records, active means well fitted inhibition curve with a large enough effect; inconclusive means small, poorly fitted or top-dose-only effect; inactive means flat fitted curve, though single readings scatter. Where the call is inconclusive, the potency comes from a doubtful curve fit.

These compounds were tested against Luciferin 4-monooxygenase (Photinus pyralis) (UniProt P08659) (assay: qHTS profiling assay for firefly luciferase inhibitor/activator using purifed enzyme and Km concentrations of substrates (counterscreen for miR-21 project)). Settings: purified FLuc, luminescence inhibition; activity change, negative = inhibition: at 57.5 µM (top of the series).
Method in brief: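 Purified P. pyralis luciferase (10nM final) with 10uM D-luciferin and 10uM ATP (Km levels) in 50mM Tris acetate pH 7.5, 10mM Mg acetate, 0.01% Tween-20, 0.05% BSA; qHTS 6-point titration, ~60 µM downward; luminescence read.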
Further: nearly all actives have a fitted effect of over 55% in size.
Potency means the concentration at half of the fitted maximal effect; tags describe the fitted curve by direction and shape.
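Wherever activity change, negative = inhibition is given: plate controls were vehicle for no effect and reference inhibitor for full effect.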

Chain of UniProt P08659 (P08659 whole entry, looked up): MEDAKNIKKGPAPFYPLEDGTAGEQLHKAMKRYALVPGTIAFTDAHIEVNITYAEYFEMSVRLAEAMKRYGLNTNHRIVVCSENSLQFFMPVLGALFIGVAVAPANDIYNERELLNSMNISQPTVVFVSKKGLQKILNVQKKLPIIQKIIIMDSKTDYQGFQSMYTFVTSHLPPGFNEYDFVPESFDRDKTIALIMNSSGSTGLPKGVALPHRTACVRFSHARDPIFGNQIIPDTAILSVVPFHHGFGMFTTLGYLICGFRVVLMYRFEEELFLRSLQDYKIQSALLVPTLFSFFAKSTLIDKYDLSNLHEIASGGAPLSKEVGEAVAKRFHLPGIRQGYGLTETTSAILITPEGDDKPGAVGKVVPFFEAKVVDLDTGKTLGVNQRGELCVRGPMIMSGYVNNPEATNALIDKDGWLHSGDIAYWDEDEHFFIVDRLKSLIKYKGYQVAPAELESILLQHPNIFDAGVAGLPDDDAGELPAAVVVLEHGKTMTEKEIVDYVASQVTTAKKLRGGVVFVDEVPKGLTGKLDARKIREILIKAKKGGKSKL

| SMILES | Potency | activity change, negative = inhibition |
| --- | --- | --- |
| CC(C)(C)c1ccc(C(=O)NCC(=O)N2CCNC(=O)C2)cc1 | inconclusive: 37.9 µM [inhibitor, partial curve, poor fit] |  |
| Cc1c2cn[nH]c(=O)c2c(C)n1-c1ccccc1 | active: 6.01 µM |  |
| Cn1c(-c2ccccc2)cnc1SCC(=O)N1CCCc2ccccc21 | inconclusive: 21.3 µM [inhibitor, partial curve] |  |
| CC(=O)c1ccc(NC(=S)NC2CCCC(C)C2C)cc1 (stereo unspecified) | inconclusive: 21.3 µM [inhibitor, single point] |  |
| Cc1ccc2c(Cl)c(C(=O)Nc3cc(C)on3)sc2c1 | inconclusive: 1.69 µM [inhibitor, full curve] |  |
| COc1ccc(CC(=O)Nc2ccc3c(c2)CCC3)cc1 | inconclusive: 37.9 µM [inhibitor, partial curve, poor fit] |  |
| CCCCCC(=O)Nc1ccc(N2CCN(CC)CC2)c(Cl)c1 | inconclusive: 23.9 µM [inhibitor, partial curve, poor fit] |  |
| CC1=NN2C(=N)/C(=C\c3cc(C)n(Cc4ccccc4)c3C)C(=O)N=C2S1 | inconclusive: 37.9 µM [inhibitor, single point] |  |
| CC(OC(=O)c1ccc(OCC2CCCO2)cc1)C(=O)N(C)Cc1ccccc1 (stereo unspecified) |  | inactive: -12.6% |
| CCCSc1ccc(C(=O)Nc2ccc(Cl)cc2)cn1 | inconclusive: 2.69 µM [inhibitor, full curve] |  |
| O=c1c2sc3ccccc3c2[nH]c(=S)n1CCN1CCOCC1 | inconclusive: 26.9 µM [inhibitor, partial curve, poor fit] |  |
| Cn1cccc1/C=C1\CCC/C(=C\c2cccn2C)C1=O | active: 6.01 µM |  |
| O=C(CN1C(=O)NC2(CCCc3ccccc32)C1=O)NC1CCCCC1 (stereo unspecified) |  | inactive: 0.647% |
| O=C(CSc1nc2ccccc2s1)N/N=C/c1ccc(C(=O)O)cc1 | active: 26.9 µM |  |
| O=S(=O)(Nc1ccc(-c2ccc(N3CCCCCC3)nn2)cc1)c1cccc(C(F)(F)F)c1 | inconclusive: 12 µM [inhibitor, partial curve] |  |
| C/C(=N\OC(=O)Nc1ccc(Cl)cc1)c1ncc(C(F)(F)F)cc1N1CCOCC1 | inconclusive: 23.9 µM [inhibitor, single point] |  |
| CNC(=O)c1ccc(CSc2nc3cccnc3n2Cc2cccc(F)c2)cc1 | inconclusive: 37.9 µM [inhibitor, single point] |  |
| Clc1nc2c(-c3ccccc3)nnn2c2ccccc12 | active: 1.51 µM |  |
| COc1cc(/C=N/N2CCN(c3ccccc3OC)CC2)ccc1OC(C)=O | active: 19 µM |  |
| O=C(Nc1nccs1)c1ccccc1Br | inconclusive: 37.9 µM [inhibitor, partial curve, poor fit] |  |
| c1ccc(N=P(c2nc3ccccc3o2)(N2CCOCC2)N2CCOCC2)cc1 | inconclusive: 21.3 µM [inhibitor, single point] |  |
| CCn1cc(CN2N=C(C)CC2c2ccccc2)c(C)n1 (stereo unspecified) |  | inactive: -2.99% |
| O=C(CSC1=NS(=O)(=O)c2ccccc2N1)c1ccccc1 | inconclusive: 37.9 µM [inhibitor, single point] |  |

| SMILES | Potency | activity change, negative = inhibition |
| --- | --- | --- |
| Cc1nn(-c2ccccc2)c(C)c1CCC(=O)O | inconclusive: 37.9 µM [inhibitor, single point] |  |
| CC(C)N1CCc2c(sc(NC(=O)C3CCCCC3)c2C(N)=O)C1 |  | inactive: 7.57% |
| COc1cc2c(C#N)c(N3CCCCC3)nc(N)c2c(N)n1 | active: 4.78 µM |  |
| Cc1cccc(C)c1NC(=O)CCS(=O)(=O)c1ccc2c(c1)CC(C)N2C(=O)C1CC1 (stereo unspecified) |  | inactive: -10.3% |
| CCOc1ccccc1Nc1nc(-c2ccc(C)cc2)c(CC(=O)O)s1 | inconclusive: 26.9 µM [inhibitor, partial curve] |  |
| Cc1c(C(=O)N(C)c2cccc(Cl)c2)cnn1-c1ccccc1 | inconclusive: 19 µM [inhibitor, partial curve, poor fit] |  |
| Cc1nnc(SCC(=O)N2c3ccccc3C(C)(c3ccccc3)CC2(C)C)s1 (stereo unspecified) |  | inactive: 3.25% |
| O=C(CNC(=O)c1ccco1)OCC(=O)c1ccc2c(c1)CCCC2 | inconclusive: 16.9 µM [inhibitor, partial curve] |  |
| Cc1cc(C)n2nc(SCC(=O)N(CCC#N)c3ccc(F)cc3)nc2n1 |  | inactive: 1.81% |
| CC(=O)C(/C=N/c1cc(-c2ccc(C)cc2)nn1-c1ccccc1)=C(\C)O | inconclusive: 2.39 µM [inhibitor, full curve] |  |
| CCCOc1ccc(C2=NNC(=O)CC2)cc1 | inconclusive: 16.9 µM [inhibitor, partial curve, poor fit] |  |
| CCOc1ccc(S(=O)(=O)N(C(=O)c2ccco2)c2cc3sc(=O)oc3c3ccccc23)cc1 |  | inactive: 0.622% |
| C/C(CC(=O)Nc1ccc2ccccc2c1)=N\NC(=O)c1ccc(O)c(O)c1 | inconclusive: 37.9 µM [inhibitor, single point] |  |
| CCCn1nc(C(=O)Nc2ccc(S(=O)(=O)Nc3nccs3)cc2)c2ccccc2c1=O |  | inactive: -1.1% |
| O=C(O)c1ccc(N/N=C/c2cc3c(cc2[N+](=O)[O-])OCO3)cc1 | inconclusive: 37.9 µM [inhibitor, single point] |  |
| COc1ccccc1NC(=O)NCc1ccc(C)n1C | inconclusive: 19 µM [inhibitor, partial curve, poor fit] |  |
| COc1ccc(OC)c(NC(=O)C(C)n2nc(C)c3c(C)n(-c4ccccc4)nc3c2=O)c1 (stereo unspecified) |  | inactive: -5.33% |
| O=C(CCNC(=O)c1ccc(Br)cc1)NCC(c1ccco1)N1CCCCC1 (stereo unspecified) |  | inactive: 1.69% |
| CCOc1ccc(NC(=O)CCC(=O)NNC(=O)COc2ccc(C)cc2Br)cc1 | active: 2.13 µM |  |
| O=C(COC(=O)Cc1ccccc1F)Nc1ccc2c(c1)OCO2 | inconclusive: 26.9 µM [inhibitor, single point] |  |
| COC(=O)c1cnc(SCc2ccc(C)cc2)n1C | inconclusive: 37.9 µM [inhibitor, partial curve, poor fit] |  |
| CCOc1ccc(OCC(=O)Nc2ccccc2C(F)(F)F)cc1 | inconclusive: 37.9 µM [inhibitor, single point] |  |
| Cc1cc(C)cc(C(=O)Nc2nnc(SCC(=O)NCC3CCCO3)s2)c1 (stereo unspecified) | inconclusive: 37.9 µM [inhibitor, partial curve, poor fit] |  |
